Reference: PubChem BioAssay AID493078 (National Center for Advancing Translational Sciences (NCATS), 2011)
The shares of active, inactive and inconclusive entries below differ from those in the screen. Potencies of inconclusive entries are left out as doubtful fits. Calls of active or inactive are those of the source. The call rests on the fitted dose curve; in most records, active means well fitted activation curve with a large enough effect; inconclusive means small, poorly fitted or top-dose-only effect; inactive means flat fitted curve, though single readings scatter.

Target: Thyrotropin-releasing hormone receptor (Homo sapiens) (UniProt P34981)
Assay: qHTS for Small Molecule Agonists and Allosteric Enhancers of Human TRH Receptor: Confirmation Screen for Agonists; further: nearly all actives have a fitted effect of over 75% in size; on activation: 0% is about no effect
Settings: TRHR-expressing cells, agonist activation read-out; series mostly up to 46.1 µM; activation: at the top concentration
How it was run: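 Kinetic intracellular calcium measurement, 1 cycle/sec, Ex 480/Em 530, in TRHR cells with fluo-8 dye. Agonist activity taken from the post-compound phase, preceding the 10 nM TRH (EC20) potentiator phase.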
Potency means the concentration at half of the fitted maximal effect; tags describe the fitted curve by direction and shape.

Sequence of UniProt P34981 (P34981 whole entry, looked up): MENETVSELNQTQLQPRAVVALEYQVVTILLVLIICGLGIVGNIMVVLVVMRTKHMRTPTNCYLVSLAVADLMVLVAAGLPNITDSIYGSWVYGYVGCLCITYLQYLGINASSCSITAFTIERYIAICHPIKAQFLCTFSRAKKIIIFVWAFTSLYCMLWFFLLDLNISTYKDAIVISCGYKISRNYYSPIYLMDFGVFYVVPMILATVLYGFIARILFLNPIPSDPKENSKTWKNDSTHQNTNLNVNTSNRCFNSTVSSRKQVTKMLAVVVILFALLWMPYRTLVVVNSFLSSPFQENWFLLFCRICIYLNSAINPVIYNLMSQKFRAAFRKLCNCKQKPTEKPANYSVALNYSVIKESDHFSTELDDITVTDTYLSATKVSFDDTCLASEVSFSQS

| SMILES | Potency | activation |
| --- | --- | --- |
| CCOC(=O)C1(CC2CC2)CCN(S(=O)(=O)C[C@]23CC[C@H](CC2=O)C3(C)C)CC1 | inconclusive [activator, partial curve, poor fit] |  |
| CCOC(=O)c1c(NC(=O)COC)sc(C(C)=O)c1C |  | inactive: -0.878% |
| O=c1[nH]c2cc3ccccc3cc2nc1C(F)(F)F | inconclusive [activator, full curve, poor fit] |  |
| COc1cccc(/C=N/NC(=O)c2c(C)nc3ccc(Br)cn23)c1O | inconclusive [activator, partial curve, poor fit] |  |
| CC1(C)CN=C(N(Cc2ccccc2)C(=O)Nc2ccccc2)S1 | inconclusive [activator, partial curve, poor fit] |  |
| O=C(C1CC(=O)N(c2ccc3c(c2)OCCO3)C1)N1CCN(Cc2ccccc2F)CC1 (centres undefined) |  | inactive: -0.603% |
| CCOc1cc(/C=C(/C#N)C(=O)Nc2ccc(O)cc2)cc(Br)c1O | active: 20.6 µM |  |
| CCCCNS(=O)(=O)c1ccc(NC(=O)C(Sc2ccccc2)c2ccccc2)cc1 (centres undefined) | inconclusive [activator, partial curve, poor fit] |  |
| Cc1cc(SC(C)C(=O)NCC(=O)Nc2ccc(F)c(F)c2F)nc2ccccc12 (centres undefined) |  | inactive: 2.44% |
